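48-hour exposure; five concentrations; linearly interpolated endpoints. Here, GI50 denotes the concentration required for 50% inhibition of growth.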 The source made the active and inactive calls. Cut-off read from the data, not from the text of the source: active = GI50 up to about 1.1 µM and inactive = higher.
These molecules were tested on NCI-H322M (assay: NCI anticancer screen, dose series, 48 h).
For `COC(=O)C(CC12CC3CC(CC(C3)C1)C2)NC(=O)C(N)CC(=O)O` (stereo not given), the GI50 was inactive: > 100 µM. In the case of `Nc1ccccc1C(=O)N/N=C1\C(=O)Nc2ccccc21`, the GI50 was inactive: > 100 µM. With `Cc1c(S(=O)(=O)/N=C(\NN)Nc2ccc(Cl)cc2)sc2ccc(Cl)cc12` the GI50 was inactive: 17 µM. In the case of `CNC(=S)N/N=C(C)\C(=N/NC(=S)NC)c1ccccc1`, the GI50 was inactive: 95.9 µM. With `CC(=O)Nc1cc(CN2CCCCC2)c(O)c2ncccc12` the GI50 was inactive: 31 µM. In the case of `CC(=O)/C=C\C1CC2C=CC1C2` (stereo not given), the GI50 was inactive: 27 µM. `COc1cc(C2c3cc4c(cc3OC(N3CCNCC3)C2C)OCO4)cc(OC)c1OC` (stereo not given) was tested, and the GI50 was active: 0.989 µM. `CC(C)=NOC(=O)OC[C@H]1O[C@@H](n2cnc3c(N)ncnc32)C(O)C1O` (stereo not given in full) was tested, and the GI50 was inactive: 48.1 µM. In the case of `CC(C)(C(=O)NN)c1ccccc1`, the GI50 was inactive: > 100 µM. In the case of `NNC(=O)N/N=C1/C(=O)N(c2ccc(Cl)c(Cl)c2)C(=O)C(=O)C1c1nc2ccccc2o1` (stereo not given), the GI50 was inactive: > 100 µM. For `Oc1cc(-c2cccc(C(F)(F)F)c2)nc2cc3c(cc12)OCO3`, the GI50 was inactive: 2.24 µM. With `Cc1cccc(N2CCN(S(=O)(=O)c3ccc(Cl)cc3)C2=N)c1C` the GI50 was inactive: 72.8 µM. `Cc1cccc(C(=O)c2cccc3ccccc23)c1C(=O)O` was tested, and the GI50 was inactive: > 100 µM. In the case of `CCOC(=O)C(Cc1ccc(OC(=O)c2ccc(OC)cc2OC)cc1)NC(=O)C(F)(F)F` (stereo not given), the GI50 was inactive: 18.9 µM. For `COC(=O)C(Cc1ccccc1)NP(=O)(O)OCC1OC(n2cc(Br)c(=O)[nH]c2=O)CC1O` (stereo not given), the GI50 was inactive: > 100 µM. In the case of `CCN1CN(c2ccccc2)C2(CCN(CC3COc4ccccc4O3)CC2)C1=O` (stereo not given), the GI50 was inactive: 44 µM. With `Nc1ncnc2c1ncn2Cc1cccc(CCl)c1` the GI50 was inactive: 21.8 µM. For `O=C1CSC2(CC(/C=C/C=C/c3ccccc3)=NN2c2cccc(S(=O)(=O)O)c2)N1c1nc2ccccc2s1` (stereo not given), the GI50 was inactive: 83 µM. With `Cc1ccc(N2C3=C(CC4=C2CC(C)(C)CC4=O)C(=O)CC(C)(C)C3)cc1` the GI50 was inactive: > 100 µM. In the case of `CCSc1nnc(Sc2c3ccccc3nc3ccccc23)s1`, the GI50 was inactive: 21.7 µM. `NC(=O)c1nc[nH]c1/N=N/SCC(N)C(=O)O` (stereo not given) was tested, and the GI50 was inactive: > 56.6 µM. For `Cc1ccc2oc(=O)c(-c3ccccc3)nc2c1`, the GI50 was inactive: 29.9 µM. With `CC(C)NC(=O)OCc1c(COC(=O)NC(C)C)c(-c2ccc[n+](COC(=O)C3CCCCC3)c2)n2c1CCC2` the GI50 was inactive: 76.2 µM. With `FC1(F)SC2CCCCCCCCCCC2C1(F)F` (stereo not given) the GI50 was inactive: > 100 µM. With `CCOC1OC(C)(C=C(C#N)C#N)CCC1C` (stereo not given) the GI50 was inactive: 67.3 µM. `Clc1ccc(C2=CC(c3ccccc3)N3C(=N[C@H]4CCCC[C@@H]43)N2)cc1` (stereo not given in full) was tested, and the GI50 was inactive: 5.04 µM. In the case of `CN(C)CCNC(=O)Cn1cc([N+](=O)[O-])c(=O)c2ccccc21`, the GI50 was inactive: > 100 µM. `OCCCSCCO` was tested, and the GI50 was inactive: > 100 µM. In the case of `Cc1ccc([N+](=O)[O-])cc1S(=O)(=O)Nc1ccc(C(=O)/C=C/c2cccs2)cc1`, the GI50 was inactive: 22.5 µM. In the case of `COc1ccc(-n2c(=O)n(C)c(=O)n2-c2c(C)c(C)c(C)c(C)c2C)cc1`, the GI50 was inactive: > 100 µM. With `CC1=C(C(N)=O)C(c2ccncc2)C(C#N)C(=O)N1` (stereo not given) the GI50 was inactive: > 100 µM. For `COc1ccc(/N=C(C)/C(C)=N/c2ccc(OC)cc2)cc1`, the GI50 was inactive: > 100 µM. With `COc1cc(N(Cc2ccc3oc(=O)c(-c4ccccc4)nc3c2)Cc2ccc3oc(=O)c(-c4ccccc4)nc3c2)cc(OC)c1OC` the GI50 was inactive: > 10 µM. `O=c1c(Cl)cc2nc3ccccc3sc-2c1Cl` was tested, and the GI50 was inactive: 16.2 µM. For `COC(=O)C1CCC2(CC1)NC(=O)NC2=O` (stereo not given), the GI50 was inactive: > 100 µM. For `CC(C)c1c(O)c(O)c2c(c1O)C(=O)C(O)=C1C(C)(C)CCC[C@@]12C`, the GI50 was inactive: 3.25 µM. In the case of `CCOc1cc(NC(C)=O)ccc1C(=O)NN1C(=O)/C(=C/c2cc(OC)c(OC)c(OC)c2)N=C1c1ccccc1`, the GI50 was inactive: > 100 µM. With `C/C(CC1C2CCCC1C2)=N\NC(N)=O` (stereo not given) the GI50 was inactive: > 100 µM. For `C=C(C)C(=O)O[C@H]1C/C(CO)=C/CCC(=C)C(OC(C)=O)[C@H]2OC(=O)C(=C)[C@H]12` (stereo not given in full), the GI50 was inactive: 31.3 µM. `COC(=O)c1cc2c(cc1CC1Cc3cc4c(cc3C1)CCC4)CCC2` was tested, and the GI50 was inactive: 67.1 µM. For `COc1ccccc1NC(=S)NNC(=O)c1cc(-c2ccccc2)nc2ccccc12`, the GI50 was inactive: 8.55 µM. For `Cn1ncc2c(Cl)ncnc21`, the GI50 was inactive: > 100 µM. `COc1ccc(/C=C2\CCC(CN(C)C)C2=O)cc1` (stereo not given) was tested, and the GI50 was inactive: 16.8 µM. For `CCCCCCc1cc2cc(-c3csc(-c4ccc(OC)cc4)n3)c(=O)oc2cc1O`, the GI50 was inactive: 16.4 µM. For `CCC(=O)NCC1(c2c[nH]c3ccccc23)SCCS1`, the GI50 was inactive: > 100 µM. For `O=C1C(Cl)C(c2ccccc2Cl)N1n1cnc2ccccc2c1=O` (stereo not given), the GI50 was inactive: 41.2 µM. With `CCCC1=C(OC)C(=O)c2c(C)cc(Cl)nc2C1=O` the GI50 was inactive: 14.9 µM. With `CC1(C)OCN(c2ccc(N3CCOCC3)cc2)Cn2c1nc1ccccc12` the GI50 was inactive: > 100 µM. With `Nc1nc(SCc2ccccc2Cl)c2[nH]cnc2n1` the GI50 was inactive: > 100 µM. In the case of `C=C1C(=O)OC2C=C(C)CC3C=C(CCC=C(C)CCC12)C(=O)O3` (stereo not given), the GI50 was inactive: 59.8 µM. With `CN1C/C(=C\c2ccccc2[N+](=O)[O-])C(=O)/C(=C/c2ccccc2[N+](=O)[O-])C1` the GI50 was inactive: 2.96 µM. For `CCOC(=O)c1nc2ccc(C(F)(F)F)cc2nc1Nc1cc(OC)c(OC)c(OC)c1`, the GI50 was inactive: > 100 µM. With `CN1CCCCCC(=N\O)/C(=N/O)CCCCC1` the GI50 was inactive: > 100 µM. `O=C(O)c1cc2ccccc2c2c1C(=O)c1ccccc1-2` was tested, and the GI50 was inactive: 78 µM. With `Clc1ccc(Cc2nc3ccccc3s2)c(Cl)c1` the GI50 was inactive: 18.8 µM. In the case of `COc1ccc(CC2c3cc(OC)c(OC)c(OC)c3CC[N+]2(C)C)cc1Oc1ccc(CC2c3cc4c(c(OC)c3CCN2C)OCO4)cc1` (stereo not given), the GI50 was inactive: > 100 µM. For `CCn1c2ccccc2c(=O)c2c(OC)ccc(OC)c21`, the GI50 was inactive: 60.5 µM. With `CCCCCCCCCCCCC/C=C/[C@@H](O)[C@H](COC1OC(CO)C(OC2OC(CO)C(O)C(OC3(C(=O)O)CC(O)C(NC(C)=O)C(C(O)C(O)CO)O3)C2O)C(O)C1O)N=[N+]=[N-]` (stereo not given in full) the GI50 was inactive: 38.5 µM. For `CC(=O)N1N(c2ccc([N+](=O)[O-])cc2)C(=O)C1(C)C`, the GI50 was inactive: 29.4 µM. With `CCOC(=O)c1ccc(-c2cc(C)[nH]n2)[nH]1` the GI50 was inactive: > 100 µM. `O=C(Cc1ccccc1)NN1C(=O)C(Cl)C1c1ccc(Cl)cc1` (stereo not given) was tested, and the GI50 was inactive: > 100 µM. For `C=C[C@H]1CN2CC[C@H]1C[C@@H]2[C@@H](O)c1ccnc2ccccc12` [CINCHONINE], the GI50 was inactive: > 100 µM. With `COc1ccc(CCNC(=O)c2ccccc2C2c3ccc(OCc4ccccc4)cc3Oc3cc(OCc4ccccc4)ccc32)cc1OC` the GI50 was inactive: > 100 µM. In the case of `Cc1ccc2c(c1C)C(=O)/C(=C/c1cccc(C)c1C(=O)O)C2`, the GI50 was inactive: > 100 µM. `CS(=O)(=O)OCCCSCCSCCCOS(C)(=O)=O` was tested, and the GI50 was inactive: > 100 µM. For `CCCCC1Cc2cc(OC)ccc2-c2nc3cc(OC)ccc3n21.CCCCC1Cc2cc(OC)ccc2-c2nc3ccc(OC)cc3n21` (stereo not given), the GI50 was inactive: 16.8 µM. In the case of `COc1cc(C(C)c2cc3c(cc2OCCN)OCO3)cc(OC)c1OC` (stereo not given), the GI50 was inactive: 59.2 µM. `CO/C=C(/C(=O)OC)c1ccccc1[C@H]1C[C@@H]1c1ccccc1` was tested, and the GI50 was inactive: 35.6 µM. With `CCOC(=O)C1(O)C(=O)C2=C3C(=O)OC(C4OC(=O)c5c(c(O)c(O)c(O)c5C31)-c1c(cc(O)c(O)c1O)C(=O)OC1COC(=O)c3cc(O)c(O)c(O)c3-c3c(cc(O)c(O)c3O)C(=O)OC14)[C@@H]2O` (stereo not given in full) the GI50 was inactive: 14.9 µM. In the case of `O=C1C(c2cnc3ccccc3n2)=C(O)c2ccccc21`, the GI50 was inactive: > 87.9 µM. In the case of `C1COCCN1.S=C(S)N1CCOCC1`, the GI50 was inactive: > 100 µM. For `O=C(/C(=N/Nc1cn[nH]c(=O)c1Cl)c1ccccc1)c1ccccc1`, the GI50 was inactive: 38.3 µM. `CC(C)(C)NNC(=O)/C(=C/c1ccc(Oc2ccc(Cl)c(Cl)c2)cc1)NC(=O)c1ccccc1` was tested, and the GI50 was inactive: > 100 µM. `NC1=NN(c2ccccc2)C2(c3ccncc3C(=O)O)C1C(N)=NN2c1ccccc1` (stereo not given) was tested, and the GI50 was inactive: > 100 µM. With `CN1CC=C(c2cccn2C)CC1` the GI50 was inactive: > 100 µM. With `O=C1c2cc(Br)ccc2-c2ccc3c4ccc5c6c(ccc(c7ccc1c2c73)c64)C(=O)c1cc(Br)ccc1-5` the GI50 was inactive: > 100 µM. With `Fc1ccc(C2SCc3nc4ccccc4n32)cc1F` (stereo not given) the GI50 was inactive: 54 µM. In the case of `COC(=O)c1c(-c2ccccc2)sc(-c2cccc3ccccc23)c1C(=O)OC`, the GI50 was inactive: 63.4 µM. With `O=c1[nH]nc2c3n[nH]c(=O)n3c3ccccc3n12` the GI50 was inactive: > 100 µM. `COC(=O)C1C2OC(C)(C)OC2CN1S(=O)(=O)c1ccc(C)cc1` (stereo not given) was tested, and the GI50 was inactive: > 100 µM. In the case of `N=C(N)Cn1cnc2ccccc21`, the GI50 was inactive: > 100 µM. For `O=C(N/N=C/c1ccccc1)c1c(-c2cccnc2)cnc2ccccc12`, the GI50 was inactive: > 100 µM. In the case of `Cc1ccc(-c2nc3cc([N+](=O)[O-])ccc3[nH]2)cc1`, the GI50 was inactive: > 100 µM. `CC(C)(C)c1cc(C(=O)/C=C/c2ccc3c(c2)OCO3)cc(C(C)(C)C)c1O` was tested, and the GI50 was inactive: 12.3 µM. For `C=C1C(=O)OC2/C=C(\C)CC/C=C(/C)CC(OC(=O)/C(=C/CO)CO)C12` (stereo not given), the GI50 was inactive: > 100 µM. For `CC(C)C(NCc1c2ccccc2[n+]([O-])c2ccccc12)C(=O)O` (stereo not given), the GI50 was inactive: 45.8 µM. For `O=C1C=CC(O)C2C1CC13SSC4(CC5C(=O)C=CC(O)C5N4C1=O)C(=O)N23` (stereo not given), the GI50 was inactive: 1.13 µM. For `O=c1[nH]c(=O)n(COCc2ccccc2)c2ccsc12`, the GI50 was inactive: > 100 µM. With `COc1cc2c(c(OC)c1OC)C(=O)[C@@H]1[C@H]2N1C(N)=O` the GI50 was inactive: 89.3 µM. In the case of `COc1ccc(/C(Cl)=C(\CN(C)C)c2ccc(OC)c(OC)c2)cc1OC.[B]`, the GI50 was inactive: > 100 µM. For `Oc1cc(-c2ccccc2Cl)nc2cc3c(cc12)OCO3`, the GI50 was active: 0.117 µM. In the case of `Cn1c(-c2ccc(C=O)o2)ccc1-c1ccc(C=O)o1`, the GI50 was inactive: > 100 µM. With `CCSCC(=O)N1CCc2c([nH]c3ccccc23)C1=O` the GI50 was inactive: > 100 µM. With `COc1ccc(OC)c(-c2nc(O)c3ccccc3n2)c1` the GI50 was inactive: > 100 µM. With `O=C1O/C(=C/c2ccccc2)C(c2ccccc2)=C1O` the GI50 was inactive: 32.7 µM.
